# The supplement of paper PMC8728848
# Some of the results follow.
# Experiments:
# Assay in all cases: glycan array binding signal (z-score within array); higher = stronger binding
# Settings in all cases: glycan notation: IUPAC condensed, linker removed
# [1] = target: Neu5Ac(a2-6)Gal(b1-4)GlcNAc(b1-3)Gal(b1-4)GlcNAc(b1-3)Gal(b1-4)GlcNAc(b1-2)Man(a1-3)[Neu5Ac(a2-6)Gal(b1-4)GlcNAc(b1-3)Gal(b1-4)GlcNAc(b1-3)Gal(b1-4)GlcNAc(b1-2)Man(a1-6)]GalNAc
# Summary of the method: (§1)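 Columns mapping to the same glycan were averaged after glycan names were converted to IUPAC-condensed notation. The data come from 3228 arrays in the Consortium for Functional Glycomics database, limited to those with an available protein sequence. Binding is reported as a within-array Z-score averaged across arrays of one protein sequence and across linkers.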
# [2] = target: Neu5Ac(a2-6)Gal(b1-4)GlcNAc(b1-3)Gal(b1-4)GlcNAc(b1-3)GalNAc
# Summary of the method: as §1
# [3] = target: Neu5Ac(a2-6)Gal(b1-4)GlcNAc(b1-3)Gal(b1-4)GlcNAc(b1-3)[Neu5Ac(a2-6)Gal(b1-4)GlcNAc(b1-3)Gal(b1-4)GlcNAc(b1-6)]GalNAc
# Summary of the method: as §1
# [4] = target: Neu5Ac(a2-6)Gal(b1-4)GlcNAc(b1-3)Gal(b1-4)GlcNAc(b1-6)[Gal(b1-3)]GalNAc
# Summary of the method: as §1
# [5] = target: Neu5Ac(a2-6)Gal(b1-4)GlcNAc(b1-3)Gal(b1-4)[Fuc(a1-3)]GlcNAc(b1-3)Gal(b1-4)[Fuc(a1-3)]GlcNAc
# Summary of the method: as §1
# [6] = target: Neu5Ac(a2-6)Gal(b1-4)GlcNAc(b1-3)GalNAc
# Summary of the method: as §1
# [7] = target: Neu5Ac(a2-6)Gal(b1-4)GlcNAc(b1-3)[Neu5Ac(a2-6)Gal(b1-4)GlcNAc(b1-6)]GalNAc
# Summary of the method: as §1
# [8] = target: Neu5Ac(a2-6)Gal(b1-4)GlcNAc(b1-6)GalNAc
# Summary of the method: as §1
# [9] = target: Neu5Ac(a2-6)Gal(b1-4)GlcNAc(b1-6)[Gal(b1-3)GlcNAc(b1-3)]Gal(b1-4)Glc
# Summary of the method: as §1
# [10] = target: Neu5Ac(a2-6)Gal(b1-4)GlcNAc(b1-6)[Gal(b1-3)]GalNAc
# Summary of the method: as §1
# [11] = target: Neu5Ac(a2-6)Gal(b1-4)GlcNAc6S
# Summary of the method: as §1
# Neu5Ac(a2-6)GalNAc = target: Neu5Ac(a2-6)GalNAc
# Summary of the method: as §1
# [12] = target: Neu5Ac(a2-6)GalNAc(b1-4)GlcNAc
# Summary of the method: as §1
# [13] = target: Neu5Ac(a2-6)GalNAc(b1-4)GlcNAc6S
# Summary of the method: as §1
# [14] = target: Neu5Ac(a2-6)GlcNAc(b1-4)GlcNAc
# Summary of the method: as §1
# [15] = target: Neu5Ac(a2-6)GlcNAc(b1-4)GlcNAc(b1-4)GlcNAc
# Summary of the method: as §1
# Neu5Ac(a2-8)Neu5Ac = target: Neu5Ac(a2-8)Neu5Ac
# Summary of the method: as §1
# [16] = target: Neu5Ac(a2-8)Neu5Ac(a2-3)Gal(b1-3)GalNAc(b1-4)[Neu5Ac(a2-3)]Gal(b1-4)Glc
# Summary of the method: as §1
# [17] = target: Neu5Ac(a2-8)Neu5Ac(a2-3)Gal(b1-3)GalNAc(b1-4)[Neu5Ac(a2-8)Neu5Ac(a2-3)]Gal(b1-4)Glc
# Summary of the method: as §1
# [18] = target: Neu5Ac(a2-8)Neu5Ac(a2-3)Gal(b1-4)Glc
# Summary of the method: as §1
# [19] = target: Neu5Ac(a2-8)Neu5Ac(a2-3)Gal(b1-4)GlcNAc
# Summary of the method: as §1
# [20] = target: Neu5Ac(a2-8)Neu5Ac(a2-3)[Gal(b1-3)GalNAc(b1-4)]Gal(b1-4)Glc
# Summary of the method: as §1
# [21] = target: Neu5Ac(a2-8)Neu5Ac(a2-3)[GalNAc(b1-4)]Gal(b1-4)Glc
# Summary of the method: as §1
# [22] = target: Neu5Ac(a2-8)Neu5Ac(a2-8)Neu5Ac
# Summary of the method: as §1
# [23] = target: Neu5Ac(a2-8)Neu5Ac(a2-8)Neu5Ac(a2-3)Gal(b1-4)Glc
# Summary of the method: as §1
# [24] = target: Neu5Ac(a2-8)Neu5Ac(a2-8)Neu5Ac(a2-3)[Gal(b1-3)GalNAc(b1-4)]Gal(b1-4)Glc
# Summary of the method: as §1
# [25] = target: Neu5Ac(a2-8)Neu5Ac(a2-8)Neu5Ac(a2-3)[GalNAc(b1-4)]Gal(b1-4)Glc
# Summary of the method: as §1
# [26] = target: Neu5Ac(a2-8)Neu5Ac(a2-8)Neu5Ac(a2-8)Neu5Ac(a2-3)[GalNAc(b1-4)]Gal(b1-4)Glc
# Summary of the method: as §1
# [27] = target: Neu5Ac(a2-8)Neu5Gc(a2-3)Gal(b1-4)GlcNAc
# Summary of the method: as §1
# [28] = target: Neu5Ac(b2-6)Gal(b1-4)GlcNAc
# Summary of the method: as §1
# Neu5Ac(b2-6)GalNAc = target: Neu5Ac(b2-6)GalNAc
# Summary of the method: as §1
# [29] = target: Neu5Ac9Ac(a2-3)Gal(b1-3)GlcNAc
# Summary of the method: as §1
# [30] = target: Neu5Ac9Ac(a2-3)Gal(b1-4)GlcNAc
# Summary of the method: as §1
# [31] = target: Neu5Ac9Ac(a2-6)Gal(b1-4)GlcNAc
# Summary of the method: as §1
# [32] = target: Neu5Gc(a2-3)Gal(b1-3)GlcNAc
# Summary of the method: as §1
# [33] = target: Neu5Gc(a2-3)Gal(b1-3)[Fuc(a1-4)]GlcNAc
# Summary of the method: as §1
# Neu5Gc(a2-3)Gal(b1-4)Glc = target: Neu5Gc(a2-3)Gal(b1-4)Glc
# Summary of the method: as §1
# [34] = target: Neu5Gc(a2-3)Gal(b1-4)GlcNAc
# Summary of the method: as §1
# [35] = target: Neu5Gc(a2-3)Gal(b1-4)GlcNAc(b1-3)Gal(b1-4)GlcNAc(b1-2)Man(a1-3)[Neu5Gc(a2-3)Gal(b1-4)GlcNAc(b1-3)Gal(b1-4)GlcNAc(b1-2)Man(a1-6)]Man(b1-4)GlcNAc(b1-4)GlcNAc
# Summary of the method: as §1
# [36] = target: Neu5Gc(a2-3)Gal(b1-4)[Fuc(a1-3)]GlcNAc
# Summary of the method: as §1
# [37] = target: Neu5Gc(a2-6)Gal(b1-4)GlcNAc
# Summary of the method: as §1
# Neu5Gc(a2-6)GalNAc = target: Neu5Gc(a2-6)GalNAc
# Summary of the method: as §1
# [38] = target: Neu5Gc(a2-8)Neu5Ac(a2-3)Gal(b1-4)GlcNAc
# Summary of the method: as §1
# [39] = target: Neu5Gc(a2-8)Neu5Gc(a2-3)Gal(b1-4)GlcNAc
# Summary of the method: as §1
# [40] = target: Neu5Gc(a2-8)Neu5Gc(a2-3)Gal(b1-4)GlcNAc(b1-3)Gal(b1-4)GlcNAc
# Summary of the method: as §1
# [41] = target: Neu5Gc(a2-8)Neu5Gc(a2-6)Gal(b1-4)GlcNAc
# Summary of the method: as §1
# [42] = target: Neu5Gc(b2-6)Gal(b1-4)GlcNAc
# Summary of the method: as §1
binder,measurement,setting,value
"AT1G73650(15) (Arabidopsis thaliana), F4HRY1 (protein) MGTVLDSHFLALTAIVTVIYQFIFFVITALFKFDQVTDFAGSTNFVILAVLTLVLKASWHFRQIVLTLLVVVWGLRLGIFLLMETRILQWGEDRRFDEQRGNIVRLIIFWTLQAVWVWTVSLPLTLVNASDGGGSLKPADVIGWTMETWVFGFLIEAAADQQKLSFKNSPENRGKWCDVGVWKYSRHPNYFGEMETLLWWGIFVAASPVLEGAEYLVIFGPLFLTLLLLFVSGIPLLEASADKKHGNSGAYRSYKKTTSPLILFPRGVYGNLPGWFKTVFLFEFPFYSRNLPQEGRLQNSKEKEVKDD",glycan array binding signal (z-score),[1],0.655
same,glycan array binding signal (z-score),[2],-0.577
same,glycan array binding signal (z-score),[3],-0.185
same,glycan array binding signal (z-score),[4],-0.446
same,glycan array binding signal (z-score),[5],1.33
same,glycan array binding signal (z-score),[6],-0.426
same,glycan array binding signal (z-score),[7],-0.508
same,glycan array binding signal (z-score),[8],7.33
same,glycan array binding signal (z-score),[9],-0.645
same,glycan array binding signal (z-score),[10],1.48
same,glycan array binding signal (z-score),[11],-0.617
same,glycan array binding signal (z-score),Neu5Ac(a2-6)GalNAc,-0.573
same,glycan array binding signal (z-score),[12],-0.702
same,glycan array binding signal (z-score),[13],-0.294
same,glycan array binding signal (z-score),[14],-0.41
same,glycan array binding signal (z-score),[15],0.507
same,glycan array binding signal (z-score),Neu5Ac(a2-8)Neu5Ac,0.266
same,glycan array binding signal (z-score),[16],0.136
same,glycan array binding signal (z-score),[17],-0.484
same,glycan array binding signal (z-score),[18],-0.556
same,glycan array binding signal (z-score),[19],-0.414
same,glycan array binding signal (z-score),[20],0.034
same,glycan array binding signal (z-score),[21],-0.359
same,glycan array binding signal (z-score),[22],2.92
same,glycan array binding signal (z-score),[23],0.091
same,glycan array binding signal (z-score),[24],-0.348
same,glycan array binding signal (z-score),[25],0.181
same,glycan array binding signal (z-score),[26],-0.213
same,glycan array binding signal (z-score),[27],-0.532
same,glycan array binding signal (z-score),[28],-0.517
same,glycan array binding signal (z-score),Neu5Ac(b2-6)GalNAc,-0.519
same,glycan array binding signal (z-score),[29],-0.22
same,glycan array binding signal (z-score),[30],-0.644
same,glycan array binding signal (z-score),[31],-0.483
same,glycan array binding signal (z-score),[32],-0.436
same,glycan array binding signal (z-score),[33],-0.428
same,glycan array binding signal (z-score),Neu5Gc(a2-3)Gal(b1-4)Glc,-0.213
same,glycan array binding signal (z-score),[34],2.26
same,glycan array binding signal (z-score),[35],-0.412
same,glycan array binding signal (z-score),[36],0.085
same,glycan array binding signal (z-score),[37],-0.302
same,glycan array binding signal (z-score),Neu5Gc(a2-6)GalNAc,3.69
same,glycan array binding signal (z-score),[38],-0.694
same,glycan array binding signal (z-score),[39],-0.527
same,glycan array binding signal (z-score),[40],-0.394
same,glycan array binding signal (z-score),[41],-0.375
same,glycan array binding signal (z-score),[42],0.171
